Counter-ions that a name gives are not always drawn. ± gives the standard deviation of the averaged measurements. The full ranking holds about 1,300 compounds; the median of “normalised cell viability” is about 1, and the lowest 2% start at about 0.14. Some of the results follow.
System: V-C8 (BRCA2-deficient hamster cells)
Assay: normalised cell viability (fraction of plate median); higher = more viable cells (less toxic)
Conditions: 5 µM
Outline: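 Library drugs, held as 10 mM stocks in DMSO, were diluted to 5 μM in 100 μl medium and added to 96-well plates of V-C8 hamster cells, either lacking BRCA2 or with BRCA2 restored, 24 h after seeding. Plates ran for 3 days (screen 1) or 6 days (screen 2), alongside solvent-only wells. Viability came from a resazurin readout, median-plate normalised, as the mean of triplicate wells.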

SMILES | normalised cell viability (treatment time: 3 days) | normalised cell viability (treatment time: 6 days)
Nc1cc(-c2ccncc2)c[nH]c1=O [Amrinone] | 0.938 ± 0.029 | 0.951 ± 0.018
OCCOCCN1CCN(C(c2ccccc2)c2ccc(Cl)cc2)CC1 (stereo not drawn) [Hydroxyzine dihydrochloride] | 1.2 ± 0.045 | 1.08 ± 0.065
C=CC1=C(C(=O)O)N2C(=O)[C@@H](NC(=O)/C(=N\OCC(=O)O)c3csc(N)n3)[C@H]2SC1 [Cefixime] | 1.035 ± 0.01 | 1.13 ± 0.048
Cc1cc(-n2c(=O)[nH]c(=O)n(C)c2=O)ccc1Oc1ccc(SC(F)(F)F)cc1 [Toltrazuril] | 1.07 ± 0.044 | 1 ± 0.073
Cc1ccccc1N1C(=O)c2cc(S(N)(=O)=O)c(Cl)cc2NC1C (stereo not drawn) [Metolazone] | 1.11 ± 0.073 | 1.06 ± 0.07
COc1ccc2[nH]c([S+]([O-])Cc3ncc(C)c(OC)c3C)nc2c1 (stereo not drawn) [Omeprazole] | 0.982 ± 0.039 | 0.945 ± 0.029
CC(=O)Nc1ccc(O)cc1 [Acetaminophen] | 0.978 ± 0.032 | 1.02 ± 0.033
CO/N=C(\C(=O)N[C@@H]1C(=O)N2C(C(=O)O)=C(C[N+]3(C)CCCC3)CS[C@H]12)c1csc(N)n1 [Cefepime hydrochloride] | 0.863 ± 0.17 | 0.934 ± 0.037
CCOC(=O)[C@H](CCc1ccccc1)N[C@@H](C)C(=O)N1CCC[C@H]1C(=O)O [Enalapril maleate] | 0.941 ± 0.063 | 0.959 ± 0.044
CC(Oc1c(Cl)cccc1Cl)C1=NCCN1 (stereo not drawn) [Lofexidine] | 0.775 ± 0.017 | 0.855 ± 0.045
CC1=C(CC(=O)O)c2cc(F)ccc2/C1=C\c1ccc([S+](C)[O-])cc1 (stereo not drawn) [Sulindac] | 0.929 ± 0.041 | 0.976 ± 0.052
CCc1cccc2c3c([nH]c12)C(CC)(CC(=O)O)OCC3 (stereo not drawn) [Etodolac] | 1.03 ± 0.12 | 0.957 ± 0.029
Cc1noc(NS(=O)(=O)c2ccc(N)cc2)c1C [Sulfisoxazole] | 1.1 ± 0.043 | 0.999 ± 0.021
CC[N+](CC)(CC)CCC(O)(c1ccccc1)C1CCCCC1 (stereo not drawn) [Tridihexethyl chloride] | 0.939 ± 0.08 | 1.05 ± 0.071
CN(C)CCCO[C@@H]1[C@H]2OC(C)(C)O[C@H]2O[C@@H]1[C@H](O)CO [Amiprilose hydrochloride] | 0.996 ± 0.049 | 1.07 ± 0.082
C[C@]12CC[C@@H]3c4ccc(O)cc4CC[C@H]3[C@@H]1C[C@@H](O)[C@@H]2O [Estriol] | 0.999 ± 0.034 | 1.01 ± 0.065
CN1CCC(=C2c3ccccc3CCc3sccc32)CC1 [Pizotifen malate] | 1.06 ± 0.044 | 0.967 ± 0.043
CN1CCOC(c2ccccc2)c2ccccc2C1 (stereo not drawn) [Nefopam hydrochloride] | 1.02 ± 0.099 | 1.03 ± 0.053
CN(C)[C@@H]1C(O)=C(C(=O)NCNCCCC[C@H](N)C(=O)O)C(=O)[C@@]2(O)C(O)=C3C(=O)c4c(O)cccc4[C@@](C)(O)[C@H]3C[C@@H]12 [Lymecycline] | 1.01 ± 0.039 | 1.01 ± 0.089

— the supplement of paper PMC6609913
